From a compilation of properties of binary mixtures (doi:10.1016/j.jct.2017.05.012)
The densities may have been worked out from excess volumes.

Test: xn = mol fraction of the nth substance listed
Settings: 101 kPa

CCCCCCCCOS(=O)(=O)[O-].CC[n+]1ccn(C)c1 + O
Settings	mass density [kg/m3]
292.15 K, x2 = 0.8237	1079.1
292.65 K, x2 = 0.8237	1078.7
292.95 K, x2 = 0.8237	1078.5
293.15 K, x2 = 0.8237	1078.3
293.25 K, x2 = 0.8237	1078.2
293.45 K, x2 = 0.8237	1078
293.65 K, x2 = 0.7822	1082.1
293.65 K, x2 = 0.8237	1077.8
293.85 K, x2 = 0.8237	1077.6
294.15 K, x2 = 0.7822	1081.7
294.15 K, x2 = 0.8104	1079.6
294.15 K, x2 = 0.8237	1077.4
294.15 K, x2 = 0.8384	1075.5
294.65 K, x2 = 0.7822	1081.2
294.65 K, x2 = 0.8104	1079.2
295.15 K, x2 = 0.8104	1078.7
295.15 K, x2 = 0.8237	1076.7
295.15 K, x2 = 0.8384	1074.9
295.65 K, x2 = 0.7822	1080.7
296.15 K, x2 = 0.7822	1080.5
296.15 K, x2 = 0.8104	1078
296.15 K, x2 = 0.8237	1076.2
296.15 K, x2 = 0.8384	1074.5
297.15 K, x2 = 0.7822	1079.7
297.15 K, x2 = 0.8104	1077.5
297.15 K, x2 = 0.8384	1073.8
298.15 K, x2 = 0.7822	1079.1
298.15 K, x2 = 0.8104	1076.8
299.15 K, x2 = 0.8237	1074.2
300.15 K, x2 = 0.8237	1073.5
303.15 K, x2 = 0.7822	1075.7
303.15 K, x2 = 0.8104	1073.4
308.15 K, x2 = 0.7822	1072.2
308.15 K, x2 = 0.8104	1069.9
308.15 K, x2 = 0.8237	1068.1
313.15 K, x2 = 0.7822	1068.7
313.15 K, x2 = 0.8384	1062.9
318.15 K, x2 = 0.8237	1061.1
323.15 K, x2 = 0.7822	1061.9
323.15 K, x2 = 0.8104	1059.5
323.15 K, x2 = 0.8384	1055.9
328.15 K, x2 = 0.8237	1054
333.15 K, x2 = 0.8104	1052.4
333.15 K, x2 = 0.8384	1048.8
338.15 K, x2 = 0.8237	1046.8
343.15 K, x2 = 0.8104	1045.3
343.15 K, x2 = 0.8384	1041.6
